In PubChem BioAssay AID686970 (National Center for Advancing Translational Sciences (NCATS), 2013):
Among all 360,000 compounds or so, about 6,000 (1.7%) were called active. Inconclusive results, whose numbers are uncertain, are shown with a selection of clear calls. Calls follow the shape of the dose curve; as a rule, active = well fitted cell-killing curve with a large enough effect; inconclusive = small, poorly fitted or top-dose-only effect, or effect the other way; inactive = flat fitted curve, though single readings scatter. No potency is given beside an inconclusive call; the fits are too rough.

Test: qHTS for induction of synthetic lethality in tumor cells producing 2HG: qHTS for the HT-1080-NT fibrosarcoma cell line;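 also: NT is the 2HG producing partner of a matched IDH1 knockdown line; nearly all actives have a fitted effect of over 55% in size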;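 as to activity, negative = less viability: 0% = DMSO-treated cells and -100% = media-only wells without cells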
Details: HT-1080-NT fibrosarcoma viability, CellTiter-Glo ATP luminescence, 48 h; activity, negative = less viability: at 46.1 µM (top of the series) unless noted
Outline: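 Read-out is CellTiter-Glo luminescence after 10 minutes at room temperature, following 48 hours' compound treatment of HT-1080-NT cells (750 cells/well, RPMI, 5% FBS, 37 degrees C).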
Potency is read from the fitted curve at half-maximal effect; tags tell the direction and shape of the fitted curve.

SMILES | Potency | activity, negative = less viability
Fc1ccc(-c2nc3ccc(Cl)cn3c2Cc2cccc(F)c2)cc1 | inconclusive [cytotoxic, single point] | 
COc1ccc(/C=C2\SC(=N)N(c3nccs3)C2=O)cc1OC |  | inconclusive: -12.9% [cytotoxic]
NS(=O)(=O)c1ccc(NC(=S)N2CCN(Cc3ccc(Cl)c(Cl)c3)CC2)cc1 | inactive | 
Cc1ccc(Cc2nnc(SCC(=O)Nc3c(C)cccc3C)[nH]c2=O)cc1 | inactive | 
COC(=O)[C@]12CCCCC=C1N(CCc1ccc(OC)c(OC)c1)C(=O)[C@H](CC(=O)NCc1cccc3ccccc13)C2 | inconclusive [cytotoxic, single point] | 
CCOC(=O)C(=Nc1ccc(Cl)cc1)NO | inconclusive [rising, single point] | 
CC(=O)N1CCC(C(=O)OCc2ccc(Cl)cc2)(c2ccccc2)CC1 | inconclusive [cytotoxic, partial curve] | 
Clc1ccc(NN(Cc2ccncc2)c2ccc(Cl)cc2)cc1 | inconclusive [cytotoxic, single point] | 
C[C@H]1CN=C(N(C)C)N1CCC1CCCCC1 | inactive | 
CCc1ccc(C2C(C#N)=C(N)SC(N)=C2C#N)cc1 | inconclusive [cytotoxic, single point] | 
CC(=O)Nc1c(I)c(C(=O)N[C@H]2C(O)O[C@H](CO)[C@@H](O)[C@@H]2O)c(I)c(N(C)C(C)=O)c1I (stereo partly drawn) | inconclusive [rising, partial curve, poor fit] | 
Cc1[nH][nH]c(=O)c1C(c1c(C)[nH][nH]c1=O)c1cn(Cc2ccccc2Cl)c2ccccc12 | inconclusive [cytotoxic, partial curve] | 
Cc1cccc(-c2noc(-c3csc([C@@H]4C[C@H](O)[C@@H](CO)O4)n3)n2)c1 | inconclusive [rising, full curve, poor fit] | 
CCN1CCN(c2cc(N3CCN(C(=O)c4ccco4)CC3)c3c4c(onc24)-c2ccccc2C3=O)CC1 | inconclusive [cytotoxic, single point] | 
CNC[C@@H]1OCc2ccccc2-c2c(n(C)c3ccccc23)C(=O)N([C@H](C)CO)C[C@H]1C | inconclusive [cytotoxic, single point] | 
Cc1ccccc1-c1cc2nc(NCCc3ccncc3)n(C)c(=O)c2s1 | inconclusive [cytotoxic, partial curve] | 
Cc1c(C(=O)NC2CCN(Cc3ccccc3)C2)oc2c(Cl)cccc12 (stereo not drawn) | inconclusive [cytotoxic, single point] | 
O=C(/C=C1\NCC2c3ccccc3CCN2C1=O)c1ccccc1 (stereo not drawn) | inactive | 
CCOC(=O)N1CCN(C(=O)C[C@@H]2C[C@@]3(C(=O)OC)CC(C)(C)CC=C3N(Cc3cccc4ccccc34)C2=O)CC1 | inconclusive [cytotoxic, single point] | 
CCCCOc1ccc(C(=O)NCCN2CCC(n3c(=O)[nH]c4ccccc43)CC2)cc1 | inconclusive [cytotoxic, partial curve] | 
O=S(=O)(O)c1cc(O)c(N=Nc2ccc(O)cc2O)c2ccccc12 | inconclusive [cytotoxic, partial curve] | 
O=C(NN=C1c2ccccc2-c2ccccc21)c1ccccn1 | inconclusive [cytotoxic, single point] | 
O=c1cc(C(Cl)(Cl)Cl)oc2c1ccc1ccccc12 | active: 16.4 µM | 

SMILES | Potency | activity, negative = less viability
COc1ccc(Br)cc1CN1CCN(C(=O)c2cccc(F)c2)CC1 | inactive | 
COCCN1C[C@@H](CO)O[C@@H](n2cnc3c(N(C)C(C)C)ncnc32)C1 | inconclusive [rising, full curve] | 
Cc1ccc(NC(=O)CN(C)C(=O)c2cccnc2Nc2cccc(C(F)(F)F)c2)cc1 | inconclusive [cytotoxic, single point] | 
Cc1ccc(OCC(=O)Nc2ccc3c(c2)OCCO3)cc1C | inactive | 
COc1ccc(CNC(=O)[C@H](C)N2C(=O)N3CCc4c([nH]c5ccccc45)[C@@]3(C)C2=O)cc1OC | inactive | 
CCn1cc(CN2CCCC(C(=O)c3ccc(-c4ccccc4)cc3)C2)cn1 (stereo not drawn) | inconclusive [cytotoxic, partial curve] | 
COCOc1cccc(CN2CCC2(C)C(=O)NCCNC(C)=O)c1 (stereo not drawn) | inconclusive [rising, full curve, poor fit] | 
CCO/N=C(\C)c1c(O)c2ccccc2n(C)c1=O | inconclusive [rising, single point] | 
Cc1ccc(-c2noc(CSc3nnc(Cc4ccccc4)n3-c3ccc(Cl)cc3)n2)cc1 | inconclusive [cytotoxic, single point] | 
COc1ccc(CN2CCN(Cc3cccc(Oc4ccccc4)c3)CC2)c(OC)c1OC | inconclusive [cytotoxic, single point] | 
O=C(Oc1cccc([N+](=O)[O-])c1)c1cc(-c2ccccc2)nc2ccccc12 | inconclusive [cytotoxic, single point] | 
C[C@H](O)[C@@H]1C(=O)N2CCc3ccc(-c4ccccc4)cc3[C@@H]2C[C@@H]1N(C)C(=O)c1ccco1 | inactive | 
CNC(=O)c1c(NC(=O)c2ccc(S(=O)(=O)N3CCCCC3C)cc2)sc2c1CCN(C)C2 (stereo not drawn) | inconclusive [cytotoxic, single point] | 
OC(COc1ccc(CNCCc2ccccc2F)cc1)CN1CCCCC1 (stereo not drawn) | inconclusive [cytotoxic, single point] | 
Cc1ccc(N(CC(=O)NCc2ccco2)C(=O)CCC(=O)Nc2nccs2)cc1C | inactive | 
CC1O[C@@H](OCC2O[C@@H](Oc3cc(O)c4c(c3)OC(c3ccc(O)cc3)CC4=O)[C@H](O)[C@@H](O)[C@@H]2O)[C@H](O)[C@H](O)[C@H]1O (stereo partly drawn) | inactive | 
CCOC(=O)c1[nH]c(C)c(C(=O)Nc2cc(OC)ccc2OC)c1C | active: 0.631 µM | 
CCN(CC(=O)Nc1ccc(N2CCOCC2)cc1)C(=O)c1ccc(C(F)(F)F)cc1 |  | inconclusive: 30%
N#Cc1ccc(C23CC4(C2)[C@H](CN(P(=O)(c2ccccc2)c2ccccc2)[C@@H]4c2ccccc2)C3c2ccc(Cl)nc2)cc1 (stereo partly drawn) | inconclusive [cytotoxic, single point] | 
COC(=O)c1cc(=O)n(CCc2ccc(OC)c(OC)c2)c(=Nc2ccc(F)c(Cl)c2)s1 | active: 16.4 µM | 
CN1CCN(c2ccc(-c3cccc(NC(=O)COc4ccc(Cl)cc4Cl)c3)nn2)CC1 | inconclusive [cytotoxic, single point] | 
CN(Cc1ccccc1)C(=O)[C@@H]1CCCN1C(=O)OC(C)(C)C | inactive | 
Cc1cc2nc(C)n(CCCNC(=O)Nc3ccc(F)cc3)c2cc1C | inactive | 

SMILES | Potency | activity, negative = less viability
CCOC(=O)c1[nH]c(C)c(C(=O)NCc2ccco2)c1C | inactive | 
Cc1ccc2nc(C)c(C(=O)NN=C3CCCCCC3)n2c1 | inconclusive [cytotoxic, full curve] | 
CCc1c(-c2ccc(Cl)cc2)ncn1Cc1cccc(-c2ccccc2)c1 | inconclusive [cytotoxic, single point] | 
CCOc1ccc(S(=O)(=O)n2c(C)nc3ccccc32)cc1 | inconclusive [cytotoxic, single point] | 
FC(F)(F)c1ccc(CN2C[C@@H]3C(c4ccc(C(F)(F)F)cc4)C4(c5cccnc5)CC3(C4)[C@H]2c2ccccc2)cc1 (stereo partly drawn) | inactive | 
CC(=O)Nc1cc(-c2ccccc2N(C)C)cn2c(-c3ccc(F)c(Cl)c3)cnc12 | active: 29.1 µM | 
O=C(CCCN1C(=O)/C(=C\c2cccc(Br)c2)SC1=S)Nc1cccnc1 | active: 16.4 µM | 
COc1cccc(C2=NN(C(=O)c3ccc(C)o3)C(O)(C(F)(F)F)C2)c1 (stereo not drawn) | inconclusive [cytotoxic, single point] | 
Cc1nc2c(C)cccn2c(=O)c1NC(=O)c1ccc2c(c1)OCO2 | inactive | 
COc1ccccc1NC(=S)NNC(=O)c1ccccc1Br | inactive | 
CC(Oc1ccc(Cl)cc1Cl)C(=O)NNC(=O)c1ccncc1 (stereo not drawn) | inconclusive [cytotoxic, full curve] | 
COc1ccccc1-c1ccc2c(c1)C(C)(Cc1cccc(C#N)c1)C(=O)N2 (stereo not drawn) | inconclusive [cytotoxic, single point] | 
COc1ccc(N/N=C2/CCCCC2=O)cc1 | active: 1.26 µM | 
COC(=O)c1ccccc1OCCOCCOc1cccc2ccc(C)nc12 |  | inconclusive: -7.81% [cytotoxic]
Cc1nc(SCC(=O)N2CCN(c3ccccc3)CC2)n[nH]1 | inactive | 
C[C@H]1CN([C@@H](C)CO)S(=O)(=O)c2ccc(Br)cc2O[C@H]1CN(C)C(=O)CCN1CCCCC1 | inactive | 
NC(N)=N/N=C/c1ccc(OCc2ccccc2Cl)cc1 | active: 12.6 µM | 
COCCC(=O)N1CCC(Oc2ccc(C(=O)NCc3cccc(C)n3)cc2)CC1 | inactive | 
NC(=O)c1ccsc1NC(=O)CSc1nc2ccccc2c(=O)n1CCCO | inconclusive [cytotoxic, single point] | 
CCN(CC)c1ncnc2c1ncn2[C@H]1CN(CCOC)C[C@@H](CO)O1 | inconclusive [rising, partial curve] | 
O=C(/C=N/O)Nc1ccc2sc3ccccc3c2c1 | inconclusive [cytotoxic, partial curve] | 
COc1ccc(C)cc1NC(=O)c1ccccc1NS(=O)(=O)c1ccc(Cl)s1 | inconclusive [cytotoxic, single point] | 
